Experimental data published in the supplement of paper PMC11876631.
Where a chain is given by its changes, count along the chain named. Names and notes keep the numbering of the source. ± gives the standard deviation of the averaged measurements. Laboratory Escherichia coli strains with one amino-acid change in an essential protein, pooled on minimal glucose agar with carbenicillin or gentamicin at twice the control MIC (plus kanamycin and chloramphenicol for the plasmids), 48 h. Fold change of barcode share against drug-free plates; higher = less susceptible. Active = above 20 in both replicates (the paper's putatively resistant). '<' = one read or none on drug, '>' = one read or none on a drug-free plate. Shares are relative, so most strains fall below 1 when a few take over. Listed are strains with at least 15 reads on both drug-free plates, and hits; most hits rest on fewer reference reads. Replicate rank correlation about 0.5. Edits are read from barcodes.

B1: tsaD L134Q (protein)
chain: MRVLGIETSCDETGIAIYDDEKGLLANQLYSQVKLHADYGGVVPELASRDHVRKTVPLIQAALKESGLTAKDIDAVAYTAGPGLVGALLVGATVGRSLAFAWDVPAIPVHHMEGHLLAPMLEDNPPEFPFVALQVSGGHTQLISVTGIGQYELLGESIDDAAGEAFDKTAKLLGLDYPGGPLLSKMAAQGTAGRFVFPRPMTDRPGLDFSFSGLKTFAANTIRDNGTDDQTRADIARAFEDAVVDTLMIKCKRALDQTGFKRLVMAGGVSANRTLRAKLAEMMKKRRGEVFYARPEFCTDNGAMIAYAGMVRFKAGATADLGVSVRPRWPLAELPAA
B2: tsaD I305Q (protein)
chain: B1 chain with Q134L, I305Q
B3: tsaD L134P (protein)
chain: B1 chain with Q134P
B4: tsaD M265Q (protein)
chain: B1 chain with Q134L, M265Q
B5: tsaD M265A (protein)
chain: B1 chain with Q134L, M265A
B6: tsaD I305D (protein)
chain: B1 chain with Q134L, I305D
B7: tsaD I305A (protein)
chain: B1 chain with Q134L, I305A
B8: tsaD M265P (protein)
chain: B1 chain with Q134L, M265P
B9: tsaD I305W (protein)
chain: B1 chain with Q134L, I305W
B10: tsaD I305P (protein)
chain: B1 chain with Q134L, I305P
B11: carA L209A (protein)
chain: MIKSALLVLEDGTQFHGRAIGATGSAVGEVVFNTSMTGYQEILTDPSYSRQIVTLTYPHIGNVGTNDADEESSQVHAQGLVIRDLPLIASNFRNTEDLSSYLKRHNIVAIADIDTRKLTRLLREKGAQNGCIIAGDNPDAALALEKARAFPGLNGMDLAKEVTTAEAYSWTQGSWTLTGGLPEAKKEDELPFHVVAYDFGAKRNILRMAVDRGCRLTIVPAQTSAEDVLKMNPDGIFLSNGPGDPAPCDYAITAIQKFLETDIPVFGICLGHQLLALASGAKTVKMKFGHHGGNHPVKDVEKNVVMITAQNHGFAVDEATLPANLRVTHKSLFDGTLQGIHRTDKPAFSFQGHPEASPGPHDAAPLFDHFIELIEQYRKTAK
B12: carA L209Q (protein)
chain: B11 chain with A209Q
B13: carA L209W (protein)
chain: B11 chain with A209W

What follows are proteins tested against Escherichia coli (laboratory strain) (assay: barcode share on antibiotic plates over drug-free plates; higher = less susceptible). Settings: antibiotic: carbenicillin; 2× MIC (3.1 µg/mL).
Method: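 A pool of E. coli strains, each edited to carry one amino-acid change in an essential protein, was grown for 48 h on minimal glucose agar with or without antibiotic; strain barcodes were sequenced; mean of two replicates.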

| Protein | fold change of barcode share |
| --- | --- |
| B1 | 0.213 ± 0.082 |
| B2 | 0.393 ± 0.078 |
| B3 | 0.422 ± 0.25 |
| B4 | 0.27 ± 0.09 |
| B5 | 0.237 ± 0.042 |
| B6 | 0.485 ± 0.11 |
| B7 | 0.329 ± 0.046 |
| B8 | 0.249 ± 0.088 |
| B9 | 0.186 ± 0.092 |
| B10 | 0.228 ± 0.12 |
| B11 | 0.564 ± 0.08 |
| B12 | 0.368 ± 0.071 |
| B13 | 0.426 ± 0.12 |

Same assay, conditions: antibiotic: gentamicin; 2× MIC (MIC 0.45 µg/mL)

| Protein | fold change of barcode share |
| --- | --- |
| B1 | 0.00352 ± 0.0012 |
| B2 | 0.00787 ± 0.0026 |
| B3 | < 0.00389 |
| B4 | 0.00525 ± 0.0018 |
| B5 | < 0.00241 |
| B6 | 0.0124 ± 0.008 |
| B7 | < 0.00782 |
| B8 | 0.00308 ± 0.002 |
| B9 | < 0.0129 |
| B10 | 0.00909 ± 0.0038 |
| B11 | 0.008 ± 0.0011 |
| B12 | < 0.00732 |
| B13 | 0.0223 ± 0.0075 |
